# According to PubChem BioAssay (Tox21):
# Inconclusive means that the source gave no clear call. Such entries were picked first, then a sample of the others. Potencies beside an inconclusive call are fits to weak or partial responses and may not hold up. Active and inactive are the calls of the source. Calls come from the whole dose curve; as a rule, active = well fitted cell-killing curve with a large enough effect in the repeat runs; inconclusive = weak or mixed curves, or effect the other way; inactive = flat fitted curve, though single readings scatter.
# Assay: qHTS assay to identify small molecule antagonists of the estrogen related receptor signaling pathway with the pleiotropic PPARgamma coactivator (PGC) cell viability counter screen (AID 1224822;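 note: viability read after 17.5 h compound exposure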)
# Conditions: ERR/PGC reporter cell line viability counter screen; series mostly up to 46.1 µM; viability change, negative = cytotoxic: at the top concentration
# How it was run: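 Compounds in DMSO, with positive and negative controls, were applied to PGC/ERR cells (2,000/well) and left 17.5 h at 37 C before CellTiter-Fluor detection.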
# % is set by controls: 0 for no effect and ±100 for the full control effect; potency is the fitted concentration of half-maximal effect.
SMILES,"viability change, negative = cytotoxic",Potency
CN(C(=O)CCCOc1ccc2[nH]c(=O)ccc2c1)C1CCCCC1,inactive: 2.22%,
CCc1cccc(N(C)C(N)=Nc2cccc3ccccc23)c1,inactive: -21.3%,
CC(C)C[C@H]1C(=O)N2CCC[C@H]2[C@]2(O)O[C@](NC(=O)[C@@H]3C=C4c5cccc6[nH]c(Br)c(c56)C[C@H]4N(C)C3)(C(C)C)C(=O)N12,,inconclusive: 31 µM [cytotoxic]
